Measurements taken from US10299477B2 (priority 2015, dated 2019).

Key:
[1] = test system: Phytophthora infestans; type: in vivo; conditions: 250 ppm spray (2.5 ml/pot), preventive; 5-10 days after inoculation; control value class
[2] = test system: Colletotrichum orbiculare; conditions: 250 ppm spray (2.5 ml/pot), preventive; 6-10 days after inoculation; control value class
[3] = test system: Magnaporthe grisea; type: in vivo; conditions: 250 ppm spray, preventive; control value class

Structure (SMILES): CCn1c(-c2c(F)cccc2F)c(-c2cc(OCCC#N)ccc2Cl)ccc1=O [Compound 250]
- Test F control value (late blight on tomato) [1]: L (L shows 50% or less of control values)
- Test H control value (anthracnose on cucumber) [2]: H (H shows more than 50% of control values)
- Test A control value (blast on rice) [3]: H (H shows more than 50% of control values)

Structure (SMILES): Cn1c(-c2c(F)cccc2F)c(-c2cc(OCCC#N)ccc2Cl)ccc1=O [Compound 251]
- Test F control value (late blight on tomato) [1]: L (L shows 50% or less of control values)
- Test H control value (anthracnose on cucumber) [2]: H (H shows more than 50% of control values)
- Test A control value (blast on rice) [3]: H (H shows more than 50% of control values)

Structure (SMILES): CCCCOc1ccc(Cl)c(-c2ccc(=O)n(CC)c2-c2c(F)cccc2F)c1 [Compound 252]
- Test F control value (late blight on tomato) [1]: L (L shows 50% or less of control values)
- Test H control value (anthracnose on cucumber) [2]: H (H shows more than 50% of control values)
- Test A control value (blast on rice) [3]: H (H shows more than 50% of control values)

Structure (SMILES): CCCCOc1ccc(Cl)c(-c2ccc(=O)n(C)c2-c2c(F)cccc2F)c1 [Compound 253]
- Test F control value (late blight on tomato) [1]: L (L shows 50% or less of control values)
- Test H control value (anthracnose on cucumber) [2]: H (H shows more than 50% of control values)
- Test A control value (blast on rice) [3]: H (H shows more than 50% of control values)

Structure (SMILES): CCCCCOc1ccc(Cl)c(-c2ccc(=O)n(CC)c2-c2c(F)cccc2F)c1 [Compound 254]
- Test F control value (late blight on tomato) [1]: L (L shows 50% or less of control values)
- Test H control value (anthracnose on cucumber) [2]: L (L shows 50% or less of control values)
- Test A control value (blast on rice) [3]: H (H shows more than 50% of control values)

Structure (SMILES): CCCCCOc1ccc(Cl)c(-c2ccc(=O)n(C)c2-c2c(F)cccc2F)c1 [Compound 255]
- Test F control value (late blight on tomato) [1]: L (L shows 50% or less of control values)
- Test H control value (anthracnose on cucumber) [2]: L (L shows 50% or less of control values)
- Test A control value (blast on rice) [3]: L (L shows 50% or less of control values)

Structure (SMILES): CCn1c(-c2c(F)cccc2F)c(-c2cc(OC(C)C)ccc2Cl)ccc1=O [Compound 256]
- Test F control value (late blight on tomato) [1]: L (L shows 50% or less of control values)
- Test H control value (anthracnose on cucumber) [2]: H (H shows more than 50% of control values)
- Test A control value (blast on rice) [3]: H (H shows more than 50% of control values)

Structure (SMILES): CC(C)Oc1ccc(Cl)c(-c2ccc(=O)n(C)c2-c2c(F)cccc2F)c1 [Compound 257]
- Test F control value (late blight on tomato) [1]: L (L shows 50% or less of control values)
- Test H control value (anthracnose on cucumber) [2]: L (L shows 50% or less of control values)
- Test A control value (blast on rice) [3]: H (H shows more than 50% of control values)

Structure (SMILES): CCn1c(-c2c(F)cccc2F)c(-c2cc(OCC(C)C)ccc2Cl)ccc1=O [Compound 258]
- Test F control value (late blight on tomato) [1]: L (L shows 50% or less of control values)
- Test H control value (anthracnose on cucumber) [2]: H (H shows more than 50% of control values)
- Test A control value (blast on rice) [3]: L (L shows 50% or less of control values)

Structure (SMILES): CC(C)COc1ccc(Cl)c(-c2ccc(=O)n(C)c2-c2c(F)cccc2F)c1 [Compound 259]
- Test F control value (late blight on tomato) [1]: L (L shows 50% or less of control values)
- Test H control value (anthracnose on cucumber) [2]: L (L shows 50% or less of control values)
- Test A control value (blast on rice) [3]: H (H shows more than 50% of control values)

Structure (SMILES): CCn1c(-c2c(F)cccc2F)c(-c2cc(OC[Si](C)(C)C)ccc2Cl)ccc1=O [Compound 260]
- Test F control value (late blight on tomato) [1]: L (L shows 50% or less of control values)
- Test H control value (anthracnose on cucumber) [2]: H (H shows more than 50% of control values)
- Test A control value (blast on rice) [3]: L (L shows 50% or less of control values)

Structure (SMILES): Cn1c(-c2c(F)cccc2F)c(-c2cc(OC[Si](C)(C)C)ccc2Cl)ccc1=O [Compound 261]
- Test F control value (late blight on tomato) [1]: L (L shows 50% or less of control values)
- Test H control value (anthracnose on cucumber) [2]: L (L shows 50% or less of control values)
- Test A control value (blast on rice) [3]: L (L shows 50% or less of control values)

Structure (SMILES): CCn1c(-c2c(F)cccc2F)c(-c2cc(OCC(F)(F)F)ccc2Cl)ccc1=O [Compound 262]
- Test F control value (late blight on tomato) [1]: L (L shows 50% or less of control values)
- Test H control value (anthracnose on cucumber) [2]: H (H shows more than 50% of control values)
- Test A control value (blast on rice) [3]: H (H shows more than 50% of control values)

Structure (SMILES): Cn1c(-c2c(F)cccc2F)c(-c2cc(OCC(F)(F)F)ccc2Cl)ccc1=O [Compound 263]
- Test F control value (late blight on tomato) [1]: L (L shows 50% or less of control values)
- Test H control value (anthracnose on cucumber) [2]: H (H shows more than 50% of control values)
- Test A control value (blast on rice) [3]: H (H shows more than 50% of control values)

Structure (SMILES): CCn1c(-c2c(F)cccc2F)c(-c2ccccc2[S+](C)[O-])ccc1=O (stereo not drawn) [Compound 264]
- Test F control value (late blight on tomato) [1]: L (L shows 50% or less of control values)
- Test H control value (anthracnose on cucumber) [2]: L (L shows 50% or less of control values)
- Test A control value (blast on rice) [3]: H (H shows more than 50% of control values)

Structure (SMILES): CCn1c(-c2c(F)cccc2F)c(-c2ccc(Cl)cc2)ccc1=O [Compound 265]
- Test F control value (late blight on tomato) [1]: L (L shows 50% or less of control values)
- Test H control value (anthracnose on cucumber) [2]: H (H shows more than 50% of control values)
- Test A control value (blast on rice) [3]: H (H shows more than 50% of control values)

Structure (SMILES): CCn1c(-c2c(F)cccc2F)c(-c2ccc(Cl)cc2)cc(Cl)c1=O [Compound 266]
- Test F control value (late blight on tomato) [1]: L (L shows 50% or less of control values)
- Test H control value (anthracnose on cucumber) [2]: L (L shows 50% or less of control values)
- Test A control value (blast on rice) [3]: H (H shows more than 50% of control values)

Structure (SMILES): CCN1C(=O)CCC(c2ccc(C)cc2)=C1c1c(F)cccc1F [Compound 267]
- Test F control value (late blight on tomato) [1]: L (L shows 50% or less of control values)
- Test H control value (anthracnose on cucumber) [2]: L (L shows 50% or less of control values)
- Test A control value (blast on rice) [3]: H (H shows more than 50% of control values)

Structure (SMILES): Cc1ccc(C2=C(c3c(F)cccc3F)N(C)C(=O)CC2)cc1 [Compound 268]
- Test F control value (late blight on tomato) [1]: L (L shows 50% or less of control values)
- Test H control value (anthracnose on cucumber) [2]: L (L shows 50% or less of control values)
- Test A control value (blast on rice) [3]: H (H shows more than 50% of control values)

Structure (SMILES): CCn1c(-c2c(F)cccc2F)c(-c2ccc(C)cc2)ccc1=O [Compound 269]
- Test F control value (late blight on tomato) [1]: L (L shows 50% or less of control values)
- Test H control value (anthracnose on cucumber) [2]: H (H shows more than 50% of control values)
- Test A control value (blast on rice) [3]: H (H shows more than 50% of control values)

Structure (SMILES): Cc1ccc(-c2ccc(=O)n(C)c2-c2c(F)cccc2F)cc1 [Compound 270]
- Test F control value (late blight on tomato) [1]: L (L shows 50% or less of control values)
- Test H control value (anthracnose on cucumber) [2]: L (L shows 50% or less of control values)
- Test A control value (blast on rice) [3]: H (H shows more than 50% of control values)

Structure (SMILES): CCn1c(-c2c(F)cccc2F)c(-c2ccc(C)cc2)cc(Br)c1=O [Compound 271]
- Test F control value (late blight on tomato) [1]: L (L shows 50% or less of control values)
- Test H control value (anthracnose on cucumber) [2]: H (H shows more than 50% of control values)
- Test A control value (blast on rice) [3]: H (H shows more than 50% of control values)

Structure (SMILES): CCn1c(-c2c(F)cccc2F)c(-c2ccc(C)cc2)cc(Cl)c1=O [Compound 272]
- Test F control value (late blight on tomato) [1]: L (L shows 50% or less of control values)
- Test H control value (anthracnose on cucumber) [2]: H (H shows more than 50% of control values)
- Test A control value (blast on rice) [3]: H (H shows more than 50% of control values)
